Results on 29 molecules are retold here after the supplement of paper PMC12632987.

The full ranking holds about 4,500 sequences; the median of “median log2 fold change of GCK-ALFA target abundance (FLAG IP / Myc IP barcode read proportion)” is about 0.078, and the lowest 2% start at about -0.6. The list shows a part of the results.

To fix the notation:
B1: GBRAP_160_4144 (protein)
chain: SPELEKLMKEIKEIAEEALKLIEGETPEEAKTIAKVAFGEIVMLVDSSEAVSEETKDKVGAVADEAEATLDANPDLTVEEVKALLKEATEKILAILKEEK
B2: GBRAP_160_4666 (protein)
chain: MEELEKLMKELEEIAKEAVEMTKGQSHEERVAIIRVMKGEIILELEESKIATDEVVDYADELGDELIAYVAANPDLTEEELQELLDKMLKEIEEKLKEEL
B3: GBRAP_160_4703 (protein)
chain: SETAEKLKKFVEEEFEKAKELIKGESKEQRAIIVEGTIGEILMEFAENPEVTDELEDEVDEIGDELVEEILEDEDITDEELDELIDEAVEKMKEAIDKHL
B4: GBRAP_184_5231 (protein)
chain: KLLDVTVEAADAEELAAGLAAARAEAEAAGARLRLLVKVEKLTPEKAATLAAAIRELAAAGLLELVGVESSEPISDEIIDTLLAAADAAGVRLVIANPDI
B5: GBRAP_39_5684 (protein)
chain: EKKEEDEDTVSYLEGLAAAYLYETGISLEEAFERAKKILLKLAKEHPELKELIEKLIKLAEEKGEEAKLALIGVAVLVEQGTPLEKIKEDIERVINYFES
B6: GBRAP_186_5398 (protein)
chain: TEAELAGIDEAEALAKEVGADVLLVVKLEGDLESIKEAALREIEAAAAYSKEFGKKVVVGIITDNSEEDTEELRKIAEERVKELRKEEGVDIHVVVVNAP
B7: GBRAP_128_3193 (protein)
chain: SEAELEAMTEELIEIVKTKDEEEVEAAVRAVLAAIEAAGLDLVDAFTEIAEKVAESLDAENVEKFGRAAIAAAATIEGKGEELARLVEAIVLTEIEEKKE
B8: GBRAP_137_3637 (protein)
chain: PNVTITKETIDDLVKIEVEFDDPEKAEEVAELIEDVAVEKGALAISIEINEDGTLEAEIWVPKEKAEALIKALVERLKKEFNATVTIIDKDTGEVKTIKA
B9: GBRAP_128_3266 (protein)
chain: MNPEIVAYANEFVEKLINSDKEEAKKIAEELMEKLKTLSDEEVEQFVEEIEKNLDKLSVEHLEILADAAEENRDKFSPEKANLVAGLAVEALNVAEEKEE
B10: GBRAP_9_7134 (protein)
chain: REELVKKMAEIAKEMIEDIKEAVPELTEEQAEEFKKKVEDLKAELLADKTATPEEIAEKFKALIKEIEERVKKIVDPELAKIVEAIALTAIEEVDEAAEE
B11: GBRAP_160_4480 (protein)
chain: SEKVREAAEELRRDVEEVLEESKDLSPEQLTLAVAVEVGANLMEFSSEGKINDEQEDIVIEAMDRIRQLGKEKKDASVEEVKAEIRKIVEEMVRRILEAA
B12: GBRAP_184_5311 (protein)
chain: ATRHVVIEADTAEAAIAQIDAAVAAARAAGAKLALTLLLRNVDVEGFRAVADALAAARDAGLLEDALVHLLDEKSEEEIDAFVAAADAAGVRLVVALPEE
B13: GBRAP_160_4761 (protein)
chain: KEKLKKLKEEIEEIFEEHLEMLKEVPKEEAPTIVRGAMGEVLMEVFSSEAASEELEEKIGEIADRAEAEAEANRDAPVEYHIEILERAREEILKLIEEEI
B14: GBRAP_160_4003 (protein)
chain: SEEIKKLIEEIRALVEETKAWMEGLSPAERLTLVRGMVGEIIQLAIESPAVSDETEDKIAEIGDATVAEVEANADASLETWRAILDDMLAKIEKLIESDA
B15: GBRAP_52_6153 (protein)
chain: ARERAREYAEAFVAAVKAGDEERARAIMEEIAATLNDEEIELFLEEVARLVEGLTPEERERVVEAVLEFEDIAVAAGHDEELLSYHTARVAGAAYDALQK
B16: GBRAP_160_4816 (protein)
chain: MEKVEELLKEAEEDLLDTAEASKDLPIEDRAALLRAEGYTSILELKEELNLSDETEDKLVAIVDELVARLLANPDLTPEEVLALVKEAYEKMKKIVLEEA
B17: GBRAP_80_6757 (protein)
chain: MEEELEKALEELKELDPELGERLREVLERARAAGVPVETILRYVEALVELAKLDLELAKKIANEAIEELEEALAAGDLEAAIGTLVDYTSEALLKVEELE
B18: GBRAP_160_4444 (protein)
chain: SEEAEKLKKEIKEELEEALEMMKGQDLEERLAILRVTRGNIILIAEESEIMTDEDIEKIDEIMEELIEWVEENPDLTEEELKAALEEALKKIFEIIDEAE
B19: GBRAP_177_5015 (protein)
chain: LTLEELRAMIADPNTTAKEAFEALTEAAPAISAEEAAELLAEVVRTKELDEEAYEAAAKAILTLSKVQGLSLAEVIGYLIEHVEAEKVEKILEAIAKVED
B20: GBRAP_160_4428 (protein)
chain: SEKLKKAKEKIEEIIEETVEMMKGQSAEERQVLVRVARGEIILELEELGLLTDEVDEVIDEEFDEIVEYIAENPDISDEELRELLEEAREKILKELEKVS
B21: GBRAP_52_5995 (protein)
chain: SAARIEAVAREIVALVLAGDREGARALIRKAFRELSDEEIVEMVRLATRLLMEDPRATDEDIRTFIDLVLDTAEEEGLDEETIADIIGAIATAIKEAELK
B22: GBRAP_160_4729 (protein)
chain: SMELEALAKEFKKLFLEAVELSENESKENKNAIWEGAAGEAIMMAFENPSLTDEQEDAVAKIMDELVKKLKENFDASLEEKKKIVEEMIEKLLKELKEIA
B23: GBRAP_128_3455 (protein)
chain: SVEEVRAWTRAVMEEVKKADDEEARRLFEELAARLTGLSLEEVEAAVEVIKEMLPELTPEKLELLAEVFREARPRFTPEKAALVADVASDALLLAEEKEE
B24: GBRAP_83_6922 (protein)
chain: KEEITVAANSDNIEEAFDAAIDLHKNEGYEVSIDVIVKKEDIEKLLKAFKKLAEEGVETKLEILLLGVTEEEAEELEKKLKEIAKEYGVNIEVEVTAVKL
B25: GBRAP_160_3997 (protein)
chain: EEEIEKLKEEIEEILEETLELAKGEDAANRLAIVRTMGGEILLELEESGIVSDEAEEEIDKILDELAATVEANPDMTDEELKELLEETLEKIKKVLEKHS
B26: GBRAP_128_3362 (protein)
chain: VDEAFLAEVRALAEAIIASSVEEARELARRIVELMLTASDEEREAAVEIVLELLPKLSAEKLDVLADVIREQLPRADAYKRELLADVQVEALNEAEELEE
B27: GBRAP_184_5080 (protein)
chain: KTLERLVEAETREELLAKVEEVLKEAAKEKANLVVHVKMKGLTVETALEIIDLLGKAKKEGKVPEVTVGFDEEFSEEEIDIILERADEQGIRVVLPIKDE
B28: GBRAP_128_3445 (protein)
chain: MEEEIEAYAKEVLEEFKKKLEKGPEEAAEFFIEKLKEVDLETAEAITKAVVEYLKTQPIELAEKVLDEIMRLSKELSPEKRAIVLDYVSPLLYELEEKEE
B29: GBRAP_57_6466 (protein)
chain: MTPLEKALEYFKKAIELVKAGASLEEILEEVKKGLDELDRETLLDILLLLDPSTRSDLSKEELKERLLELIRRLLEEEGREAALKALELMAGQVEMDLVE

The target of the experiment is GABARAP, O95166. The experiment can be described thus: median log2 fold change of GCK-ALFA target abundance (FLAG IP / Myc IP barcode read proportion) (log2 ratio); each designed protein is fused to an ALFA-tag nanobody in HEK293 cells to bring the named protein to FLAG-tagged glucokinase (GCK); Myc marks an untargeted standard; higher = target protein stabilised (more abundant). The following applies: target protein: 3xFLAG-MCP-GCK-ALFA reporter; HEK293 landing pad (RPLP). In short, it runs like this: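 The readout is target abundance, the per-binder median log2 ratio of FLAG to Myc barcode read proportions. It came from HEK293 landing-pad cells carrying a recombined ALFA-nanobody-fused binder library, induced with 2 μg mL^−1 doxycycline and transfected with a plasmid for a FLAG-tagged target and a Myc-tagged standard. After 48 h, lysates were immunoprecipitated with anti-FLAG and anti-Myc, and circular RNA barcodes were reverse transcribed, amplified and sequenced. Each barcode needed a proportion of at least 10^−7 in both replicates and each binder at least 3 barcodes per replicate, a pseudocount of 10^−6 was added, and the replicates were pooled.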
GABARAP, O95166, sequence (O95166 whole entry, the tested form may be a part): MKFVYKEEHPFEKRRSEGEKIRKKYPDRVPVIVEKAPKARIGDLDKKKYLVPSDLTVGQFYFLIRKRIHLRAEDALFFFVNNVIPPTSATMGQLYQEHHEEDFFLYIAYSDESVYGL
B1: the “median log2 fold change” value turned out to be 0.18. Next, B2: -1.11; B3: -0.438; B4: 0.203. Next, B5: 0.28; B6: 0.0649. Consider B7, for which the “median log2 fold change” value is 0.286. Turning to B8, the “median log2 fold change” value is -0.21. The figure for B9 is 0.0174; for B10 it is 0.169. Next, B11: 0.0283. Next, B12: -0.186; B13: -0.11; B14: 0.00203. For B15, the “median log2 fold change” value was -0.742.

Turning to B16, the “median log2 fold change” value came out at 0.0572. Next, B17: 0.105.

As to B18, the “median log2 fold change” value was -0.094. The figure for B19 is 0.149; for B20 it is 0.0554. Regarding B21, the “median log2 fold change” value is -0.964. The figure for B22 is -0.015; for B23 it is 0.248. The figure for B24 is 0.108. Next, B25: -0.418; B26: -0.496. B27: the “median log2 fold change” value turned out to be 0.258. The figure for B28 is 0.149; for B29 it is 0.253.
